# Among all 150,000 compounds or so, about 540 (0.36%) showed an effect of 50% or more. This is one part of the list.
# System: Plasmodium falciparum
# Experiment: Primary screen in NF54 nanoGlo assay, in single point, at 2uM, 72h; a lower Z score goes with more inhibition
# Format: functional, Erythrocyte
# Conditions: timepoint 72 hour
Structure (SMILES),% Inhibition [%],Z score
Cc1cccc(CN2CCN(c3ccc(-c4ccccc4)cc3)C(=O)[C@@H]2C)c1,-8,1.3
COCCN1C[C@]2(CCCN(c3cc(C)ccn3)C2)CCC1=O,-3,0.41
COc1ccc(N2CCN(C(=O)c3cc(C4CC4)[nH]n3)CC2)cc1,-8,0.73
Cc1cccn(CC(=O)NC2CCOCC2)c1=O,7,-0.94
O=S(=O)(NC[C@@H](c1cccs1)N1CCc2ccccc2C1)c1ccc(Cl)cc1,-16,2.07
COc1ncc(-c2nc(-c3ccsc3)no2)c(C)n1,-5,0.55
CCN1CCC([C@H]2c3nccn3CCCN2CCc2ccccc2)CC1,5,-0.72
CC1(C(=O)O)CCN(C(=O)N[C@H]2CCN(c3ccc(F)c(Cl)c3)C2)CC1,-6,0.63
CC(C)(C)CNC1(Cc2cc(-c3ccccn3)on2)COC1,12,-1.39
O=C(NCc1cccnc1N1CCOCC1)N1CCC(CO)CC1,-8,1.19
Cn1cc(C(=O)NC2CC(O)c3ccccc32)ccc1=O (centres undefined),-20,2.94
CC(C)C1CN(C(=O)C23CC(C(F)(F)F)(C2)C3)C1,-10,0.96
Cc1cc(F)cc(CN2[C@@H]3CN(CCC(C)C)C[C@@H]3OCCS2(=O)=O)c1,-10,1.82
CC(C)C(=O)N1CCOc2ccc(CN3CCCCC3)cc2C1,-10,1.1
CC(C)C(=O)N1CCc2ccc(OC(C)C(=O)N(C)Cc3ccco3)cc2C1c1ccccc1 (centres undefined),-12,1.69
CC(C)Cc1cc(CN2Cc3ncccc3C2=O)on1,2,-0.35
C=C(C)CNC(=O)NC1CC(F)(F)C1,-1,0.12
Cc1cccc(N2C(=O)C3C4c5ccccc5C(C)(c5ccccc54)[C@@H]3C2=O)c1 (some centres undefined),5,-0.48
COc1ccc(C(=O)Nc2cnn(C)c(=O)c2N2CCCCC2)cc1,-11,2.07
O=C(O)[C@H]1C[C@@H](C(=O)Nc2ccc(F)cc2)CN(Cc2ccsc2)C1,-9,1.66
CNC(=O)c1ccc(CN(C)CC2(O)CCC(C)CC2)o1 (centres undefined),-1,0.13
O=C(NCc1cccs1)N1CC(F)C1,-6,0.9

Structure (SMILES),% Inhibition [%],Z score
COc1cccc(-c2nc3sc(-c4cccc(OC)c4)nc3s2)c1,-4,0.57
O=C(CNC(=O)c1cccs1)Nc1ccncc1,2,-0.23
O=C(C1=COCCO1)N1CCCc2ccccc21,-7,1.3
CN1C(=O)C2(OCC(COc3ccc(Cl)cc3)O2)c2ccccc21 (centres undefined),-7,0.78
Cc1c([C@H](C)NC2CCN(c3ccc4c(c3)OCO4)CC2)cnn1-c1ccc(C#N)cc1,-15,2.7
COC[C@@]12CN(C(C)=O)CC[C@@H]1CN(C(=O)CCc1ccccc1OC)C2,2,-0.29
CCOc1ccccc1NC(=O)Cn1nc2c3ccc(F)cc3ncn2c1=O,6,-0.94
Cc1ccc2[nH]c([C@H](C(C)C)n3cc(-c4ccc(CO)o4)nn3)nc2c1,-16,2.23
Fc1ccc(Br)c2c1CC[C@@H]2NCCn1ccnc1,-11,1.34
CO[C@@H](C)c1ccc(-c2cnc3nnc(C)n3c2)cc1,-3,0.47
C=CCOc1ccccc1CN(CC)C(=O)C1CCS(=O)(=O)CC1,-5,0.71
O=C(Nc1ccc2c(c1)OCO2)C1CCN(C(=O)c2cc3c(s2)CCCCCC3)CC1,-9,1.85
Cc1ccc(CNC(=O)Cn2cnc3c(nnn3C)c2=O)cc1,-1,0.15
C#CCN1CCC(C(=O)N(CC(=O)OCC)C2CCCCC2)CC1,-12,1.35
CC(NC1CCCCC1C)c1nccs1 (centres undefined),-14,2.13
CCc1cnc(NC[C@@H](CO)Cc2cccs2)nc1,-11,1.77
COc1cc(CN2CCC[C@H]2C(=O)NCC2CCCCC2)cc(OC)c1O,2,-0.3
CC(C)N1CCC(N(C)CC(=O)N[C@@H](C)c2ccccc2)CC1,-13,1.67
Cc1ccc(-c2ccc(C(=O)NCc3cccnc3)o2)cc1Cl,-10,1.4
CC[C@H]1CN(C(=O)Cn2cc(C(F)(F)F)ccc2=O)CCO1,-9,1.12
Cc1noc(C)c1[C@H](C)NCc1cc2ccccc2s1,-8,0.91
COc1ccc(NC(=O)C/C(N)=N/O)cc1,-6,0.72

Structure (SMILES),% Inhibition [%],Z score
CC(=O)N1CCN(C2CN(Cc3nc(C)c(C)o3)CC2C)CC1 (centres undefined),-11,1.57
c1cc2c(cc1-c1noc([C@H]3CCCc4[nH]ncc43)n1)OCO2,-15,2.15
C#CCN(C)S(=O)(=O)Cc1ccc(C)c(F)c1,-1,0.21
COc1ccccc1-n1c(=O)n2n(c1=O)CCCC2,14,-1.45
C[C@H](NC(=O)c1cc2c(s1)CCCCC2)c1nncn1C,-20,2.39
O=C1[C@@H]2CCCN2C(=O)N1CCCc1ccc(Cl)cc1,-11,1.76
Cc1cc(C)c(C(=O)N2CCC(NC(=O)c3ccncc3)CC2)[nH]1,3,-0.27
O=C(c1nc2ccccc2s1)N1C2C=CCC1CC2 (centres undefined),-6,1.1
CCCCc1nc(-c2nccn2C[C@H]2CN(C(C)=O)CCO2)c[nH]1,-8,1.49
CC(C)NC(=O)Cc1cccn1-c1cccc(Cl)c1,-4,0.54
Cc1c(C(=O)N2C[C@H](C)OCC2(C)C)nnn1-c1ccn(C)n1,-12,2.27
COC(=O)c1ccc2c(c1)CC[C@H](NCc1ccc(C)cn1)C(=O)N2,-18,1.56
Cc1ccc(CN2CC[C@H](O)CC(C)(C)C2)o1,14,-1.96
O=C(NCC1CCCCCCC1)c1nc(=O)[nH][nH]1,-14,1.36
CCCn1ncc(CN(C)CCOc2cc(C)ccc2C)c1C,-4,0.74
COc1cc(NC(=O)N(CC(=O)N2c3ccccc3-n3cccc3[C@H]2c2cccc(Cl)c2)C(C)C)cc(OC)c1,7,-0.77
CN(C)C(=O)CO[C@H]1COCC[C@@H]1NC(=O)c1n[nH]c2ccccc12,-14,1.27
COc1ccc(N2C(=O)[C@@H]3CCCN3[C@H]2c2ccc(OC)c(OC)c2)cc1,7,-0.86
Cc1ccccc1CN1CCCN(C(=O)c2csnn2)CC1,7,-0.85
C[C@H]1CN(S(=O)(=O)CCCN2C(=O)c3ccccc3C2=O)CCO1,-8,1.32
Cc1ccccc1-c1nnc2c3ccccc3nc(N3CCN(C(=O)c4ccco4)CC3)n12,-8,1.04
Cc1ccc(CNC(=O)Cn2nc3c4ccc(F)cc4ncn3c2=O)cc1,-1,0.23

Structure (SMILES),% Inhibition [%],Z score
Cn1ccnc1CC[C@H]1CCCCN1Cc1noc(C2CCCC2)n1,-22,2.15
Cc1cc(=O)n2c3c(c(C#N)c2[nH]1)CCCC3,-9,1.07
Cc1cc(CN2CCN(CC3CCCCC3)[C@@H](CCO)C2)[nH]n1,-4,0.6
COC(=O)[C@@H](C)NCc1cc(O)cc(F)c1,7,-1.24
C=CCNS(=O)(=O)C1CON(C)C1c1ccc(N(C)C)cc1 (centres undefined),-13,1.49
COC1CCCC(CC(=O)N2CCCC(C(C)(C)C(=O)O)C2)C1 (centres undefined),-2,0.33
NC(=O)c1ccc(S(=O)(=O)Cl)cc1,-18,2.87
O=C(N[C@H]1CCCOCC1)N(Cc1ccccc1)C1CCCCC1,-8,1.09
CN(CCO)c1cc2c(F)cccc2cn1,1,-0.06
Clc1ccc(-c2cc(-c3cccnc3)nc3ccc4ccccc4c23)cc1,5,-0.97
CCCc1n[nH]cc1C(=O)N1C[C@@H]2CC[C@H]1CN(Cc1cccnc1)C2,-1,0.19
Cc1nccn1-c1ncc(NC(=O)c2ccc(F)cc2Cl)cn1,-10,1.6
COCCC1(NC(=O)C2CCOCC2)CCN(Cc2ccc(O)cc2)CC1,-13,1.67
Cc1cccc(N2CCN(C(=O)Cn3nc(C)c4c(C)onc4c3=O)C[C@@H]2C)c1,8,-0.94
CCc1nccn1Cc1nc(C2CCCCC2)no1,-26,2.33
C[C@@H](CC(=O)N1CC(Nc2ncccn2)C1)c1ccccc1,-12,1.44
CCCCN1CCN(C(=O)c2cccc3c2CCN3C(=O)Nc2ccccc2)CC1,-6,1.03
O=C(O)[C@H]1CN(c2cc(C3CC3)ncn2)C[C@@H]1C1CC1,-8,1.28
CC(C)C[C@H](NC(=O)Nc1cccc(F)c1)C(=O)Nc1cc[nH]n1,-11,2.4
CC(C)(C)[C@@H]1NC(=O)CC[C@H]1NC(=O)c1ccc(-n2cnnn2)cc1,-14,1.28
CC(C)C(=O)N1CCC(CN2C[C@@H](C(=O)N3CCOCC3)CC2=O)CC1,-10,1.31

# — ChEMBL document CHEMBL4888484, “Replenishing the malaria drug discovery pipeline: Screening and hit evaluation of the MMV Hit Generation Library 1 (HGL1) against asexual blood stage Plasmodium falciparum ,using a nano luciferase reporter read-out” (2022)
